± gives the standard error. Variants at the floor of the assay are shown more often than the library holds them.
B1: glmS ribozyme (parent)
chain: AUAAAAGCGCCAGAACUACAGAAAUGUAGUUGACGAGGAGGAGGUUUAUCGAAUUUUCGGCGGAUGCCUCCAAA

What was measured:
Details in all cases: with glucosamine-6-phosphate
glucosamine-6-phosphate [1] = variants of: B1; test: self-cleavage kobs at 640 uM GlcN6P; higher = faster cleavage; RNA array
Outline: (§1)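 Sequenced MiSeq chips were the platform: E. coli RNA polymerase transcribed barcoded ribozyme variants on them in situ, and a hybridised Cy3 probe tracked these at 37 °C. After glucosamine-6-phosphate (40 μM to 10 mM) in HEPES/KCl/Mg(OAc)2 buffer was flowed in, tiles were imaged over ~14 h. Signals normalised to baseline and to non-cleaving reference variants were reduced to per-tile medians and fit to one- or two-exponential decays to obtain kobs. kcat and KM were derived through weighted Michaelis–Menten fits across concentrations.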

glucosamine-6-phosphate [2] = variants of: B1; test: self-cleavage kobs at 160 uM GlcN6P; higher = faster cleavage; RNA array
Outline: as §1

glucosamine-6-phosphate [3] = variants of: B1; test: self-cleavage kobs at 2500 uM GlcN6P; higher = faster cleavage; RNA array
Outline: as §1

glucosamine-6-phosphate [4] = variants of: B1; test: self-cleavage kobs at 10000 uM GlcN6P; higher = faster cleavage; RNA array
Outline: as §1

| Variant | self-cleavage kobs at 640 uM GlcN6P (glucosamine-6-phosphate [1]) [s⁻¹] | self-cleavage kobs at 160 uM GlcN6P (glucosamine-6-phosphate [2]) [s⁻¹] | self-cleavage kobs at 2500 uM GlcN6P (glucosamine-6-phosphate [3]) [s⁻¹] | self-cleavage kobs at 10000 uM GlcN6P (glucosamine-6-phosphate [4]) [s⁻¹] |
| --- | --- | --- | --- | --- |
| G29A A33G | < 1e-05 | < 1e-05 | < 1e-05 | < 1e-05 |
| G29A A48U G62U | < 1e-05 | – | < 1e-05 | – |
| G29A G41C G51C | < 1e-05 | – | < 1e-05 | – |
| G29A G60U | < 1e-05 | – | < 1e-05 | < 1e-05 |
| G29A U47G A53G | 0.000173 ± 3.2e-05 | 6.62e-05 ± 2e-05 | 0.000477 ± 0.00013 | – |
| G29C C61G C70U | < 1e-05 | – | – | – |
| G29C G38A G40A | < 1e-05 | – | < 1e-05 | – |
| G29C U30C G60U | < 1e-05 | – | – | – |
| G29C U46G U57G | < 1e-05 | < 1e-05 | < 1e-05 | – |
| G29U A33G | < 1e-05 | < 1e-05 | – | < 1e-05 |
| G29U C50U G63U | < 1e-05 | – | – | – |
| G29U G32C A36G | < 1e-05 | < 1e-05 | – | – |
| G29U G37C U46C U55A C70U | < 1e-05 | – | – | – |
| G29U U30A G43A G51U | < 1e-05 | – | – | – |
| U30A C34G A48U A52C | < 1e-05 | – | – | – |
| U30A G32A A39G | 0.000602 ± 0.00013 | 6.92e-05 ± 2.4e-05 | – | – |
| U30A G40U G60C C61A | < 1e-05 | – | < 1e-05 | – |
| U30A G43A U56G | < 1e-05 | – | – | – |
| U30A G60U G63A | < 1e-05 | – | – | – |
| U30A G62U | < 1e-05 | < 1e-05 | – | < 1e-05 |

| Variant | self-cleavage kobs at 640 uM GlcN6P (glucosamine-6-phosphate [1]) [s⁻¹] | self-cleavage kobs at 160 uM GlcN6P (glucosamine-6-phosphate [2]) [s⁻¹] | self-cleavage kobs at 2500 uM GlcN6P (glucosamine-6-phosphate [3]) [s⁻¹] | self-cleavage kobs at 10000 uM GlcN6P (glucosamine-6-phosphate [4]) [s⁻¹] |
| --- | --- | --- | --- | --- |
| U30A U56C | 0.000126 ± 2.4e-05 | – | 0.000369 ± 8.1e-05 | 0.00113 ± 0.00015 |
| U30C A36C G59U | < 1e-05 | – | – | – |
| U30C C68U | 4.07e-05 ± 6.8e-06 | – | 9.82e-05 ± 1.1e-05 | 0.000111 ± 8.5e-06 |
| U30C G37C | < 1e-05 | < 1e-05 | – | < 1e-05 |
| U30C G63C | < 1e-05 | – | – | < 1e-05 |
| U30C U56G | 8.86e-05 ± 1.3e-05 | – | 0.000135 ± 1.8e-05 | 0.000296 ± 3.5e-05 |
| U30G A36C | < 1e-05 | – | < 1e-05 | < 1e-05 |
| U30G A52G | 9.63e-05 ± 1.4e-05 | 4.03e-05 ± 2e-05 | – | – |
| U30G G32C G41A C50G G51U | < 1e-05 | – | < 1e-05 | – |
| U30G G41A G63C | < 1e-05 | – | < 1e-05 | – |
| U31C A48G G60A | < 1e-05 | – | < 1e-05 | – |
| U31C G62U C68G | < 1e-05 | < 1e-05 | < 1e-05 | – |
| U31G G38A U57C C58U G66C | < 1e-05 | – | – | – |
| U31G G41A U56G | < 1e-05 | – | – | – |
| U31G G44C | < 1e-05 | < 1e-05 | – | – |
| G32A A48U U65C | < 1e-05 | – | – | – |
| G32A C50U A53G | < 1e-05 | – | – | – |
| G32A G35A G37U U49C U55C G62U | < 1e-05 | – | – | – |
| G32A G38A U45G | < 1e-05 | < 1e-05 | < 1e-05 | – |
| G32A G66A | 0.000269 ± 6.9e-05 | – | 0.000911 ± 0.00018 | 0.0019 ± 0.00044 |

| Variant | self-cleavage kobs at 640 uM GlcN6P (glucosamine-6-phosphate [1]) [s⁻¹] | self-cleavage kobs at 160 uM GlcN6P (glucosamine-6-phosphate [2]) [s⁻¹] | self-cleavage kobs at 2500 uM GlcN6P (glucosamine-6-phosphate [3]) [s⁻¹] | self-cleavage kobs at 10000 uM GlcN6P (glucosamine-6-phosphate [4]) [s⁻¹] |
| --- | --- | --- | --- | --- |
| G32C A42C G62U | < 1e-05 | – | < 1e-05 | – |
| G32C G38A A48C | < 1e-05 | – | – | – |
| G32C G44U | < 1e-05 | < 1e-05 | < 1e-05 | – |
| G32C G63A U65A | < 1e-05 | – | < 1e-05 | – |
| G32C U45G G60A C68G | < 1e-05 | – | < 1e-05 | – |
| G32C U46G G59U | < 1e-05 | – | – | – |
| G32C U65A | < 1e-05 | – | < 1e-05 | – |
| G32U A53C | 0.000104 ± 2.3e-05 | – | 0.000105 ± 2.7e-05 | 0.000275 ± 4.6e-05 |
| G32U C71G | 6.13e-05 ± 1.6e-05 | – | 7.51e-05 ± 9.8e-06 | – |
| A33C A42G G51U G62U | < 1e-05 | – | < 1e-05 | – |
| A33C C50G G51A G60C | < 1e-05 | – | < 1e-05 | – |
| A33C G37A U56C | < 1e-05 | – | – | – |
| A33C U49A | < 1e-05 | – | – | – |
| A33G A39C G44A C71G | < 1e-05 | – | < 1e-05 | – |
| A33G C34G U49A | < 1e-05 | – | – | – |
| A33G G37U | < 1e-05 | < 1e-05 | – | < 1e-05 |
| A33G G38C U57C G59A | < 1e-05 | – | < 1e-05 | – |
| A33G U46C U54G G60U | < 1e-05 | – | – | – |
| A33G U47C | < 1e-05 | < 1e-05 | < 1e-05 | < 1e-05 |
